# Experimental data reported in patent US20090306091A1, “ANTIMALARIAL THERAPY USING A COMBINATION OF SYNTHETIC ARTEMISININ DERIVATIVE AND BISQUINOLINE DERIVATIVE” (priority 2006, published 2009).
# How the values were obtained:
# [1] = tested on: female rabbits; experiment: Embryo-fetal assessment study in female rabbits, oral administration (ICH guideline, GLP)
# [2] = tested on: female rats; experiment: Embryo-fetal assessment study in female rats, oral administration (ICH guideline, GLP); assay type: in vivo, rat
# Text: Further, abnormal findings viz., interventricular septal defect (5 fetuses), aortic arch dilated (6 fetuses), ductus arteriosus and/or pulmonary trunk narrowed (5 fetuses), spleen reduced in size (4 fetuses) were noticed.
# [3] = female rats, oral, 10, 30 and 90 mg/kg/day
smiles,measurement,setting,value
CC(C)(N)CNC(=O)CC1CCC2(CC1)OOC1(O2)C2CC3CC(C2)CC1C3 (stereo not drawn),found dead on day 19 pc,"[1]; female rabbits, 90 mg/kg/day",one
same,labored respiration,"[1]; female rabbits, 90 mg/kg/day",four
same,reduction in food consumption compared with the vehicle control,"[1]; female rabbits, 90 mg/kg/day",−27.3%
same,fetal weight,"[1]; female rabbits, 90 mg/kg/day (32.7 g in the vehicle control)",31.5 g
same,mean body weight development,"[1]; female rabbits, 90 mg/kg/day (+2.4% in the vehicle control)",+0.1%
same,NOEL (no observed effect level) for maternal organisms,"[1]; female rabbits, oral",10 mg/kg body weight/day
same,accumulation after repeated dosing,"[1]; female rabbits, oral, 10, 30 and 90 mg/kg/day",no accumulation
same,NOEL for fetal organisms,"[1]; rabbits, oral",30 mg/kg body weight/day
same,embryofetal risk compared with artesunate,[2]; conclusion from the rat and rabbit studies against reported artesunate data,comparatively better than Artesunate
same,aortic arch dilated,"[2]; female rats, 90 mg/kg/day",6 fetuses
same,ductus arteriosus and/or pulmonary trunk narrowed,"[2]; female rats, 90 mg/kg/day",5 fetuses
same,interventricular septal defect,"[2]; female rats, 90 mg/kg/day",5 fetuses
same,post-implantation loss,"[2]; female rats, 90 mg/kg/day",10/22
same,reduction in mean food consumption compared with the vehicle control,"[2]; female rats, 90 mg/kg/day",−10.7%
same,spleen reduced in size,"[2]; female rats, 90 mg/kg/day",4 fetuses
same,fetal weight,"[2]; female rats, 90 mg/kg/day (4.8 g in the vehicle control)",4.1 g
same,litter size,"[2]; female rats, 90 mg/kg/day (13.6 in the vehicle control)",8.2 fetuses per dam
same,body weight gain,"[2]; female rats, 90 mg/kg/day (74 g in the vehicle control)",57 g
same,"changes in food consumption, mean body weight, reproductive parameters and fetus weight","[2]; female rats, 10 and 30 mg/kg/day",no changes
same,"effects on fetal sex ratios, at fresh external examination or at skeletal examination","[2]; female rats, all dose levels",No test item-related effects
same,NOEL (no observed effect level) for maternal organisms and reproductive parameters,"[2]; female rats, oral",30 mg/kg body weight/day
same,accumulation after repeated dosing,[2]; [3],no accumulation
same,"test item-related clinical signs, signs of discomfort and gross changes",[2]; [3],"no test item-related clinical signs, signs of discomfort and gross changes"
same,NOEL (no observed effect level) for fetal organisms,"[2]; rats, oral",10 mg/kg body weight/day
